# Assay results: PMC4336329 (PLoS ONE, 2015)
# About 14,000 (4.5%) of roughly 310,000 compounds showed an effect of 50% or more. The effect is printed as a negative number. Some of the results follow.
# Biological target: human ether-à-go-go-related gene (hERG) potassium channel (human, UniProt Q12809)
# Experiment: primary screen, population patch clamp on CHO cells stably expressing hERG
# 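Further: peak tail current of the secondary pulse compared with the same well before compound.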
# Sequence of human ether-à-go-go-related gene (hERG) potassium channel (Q12809 whole entry, looked up): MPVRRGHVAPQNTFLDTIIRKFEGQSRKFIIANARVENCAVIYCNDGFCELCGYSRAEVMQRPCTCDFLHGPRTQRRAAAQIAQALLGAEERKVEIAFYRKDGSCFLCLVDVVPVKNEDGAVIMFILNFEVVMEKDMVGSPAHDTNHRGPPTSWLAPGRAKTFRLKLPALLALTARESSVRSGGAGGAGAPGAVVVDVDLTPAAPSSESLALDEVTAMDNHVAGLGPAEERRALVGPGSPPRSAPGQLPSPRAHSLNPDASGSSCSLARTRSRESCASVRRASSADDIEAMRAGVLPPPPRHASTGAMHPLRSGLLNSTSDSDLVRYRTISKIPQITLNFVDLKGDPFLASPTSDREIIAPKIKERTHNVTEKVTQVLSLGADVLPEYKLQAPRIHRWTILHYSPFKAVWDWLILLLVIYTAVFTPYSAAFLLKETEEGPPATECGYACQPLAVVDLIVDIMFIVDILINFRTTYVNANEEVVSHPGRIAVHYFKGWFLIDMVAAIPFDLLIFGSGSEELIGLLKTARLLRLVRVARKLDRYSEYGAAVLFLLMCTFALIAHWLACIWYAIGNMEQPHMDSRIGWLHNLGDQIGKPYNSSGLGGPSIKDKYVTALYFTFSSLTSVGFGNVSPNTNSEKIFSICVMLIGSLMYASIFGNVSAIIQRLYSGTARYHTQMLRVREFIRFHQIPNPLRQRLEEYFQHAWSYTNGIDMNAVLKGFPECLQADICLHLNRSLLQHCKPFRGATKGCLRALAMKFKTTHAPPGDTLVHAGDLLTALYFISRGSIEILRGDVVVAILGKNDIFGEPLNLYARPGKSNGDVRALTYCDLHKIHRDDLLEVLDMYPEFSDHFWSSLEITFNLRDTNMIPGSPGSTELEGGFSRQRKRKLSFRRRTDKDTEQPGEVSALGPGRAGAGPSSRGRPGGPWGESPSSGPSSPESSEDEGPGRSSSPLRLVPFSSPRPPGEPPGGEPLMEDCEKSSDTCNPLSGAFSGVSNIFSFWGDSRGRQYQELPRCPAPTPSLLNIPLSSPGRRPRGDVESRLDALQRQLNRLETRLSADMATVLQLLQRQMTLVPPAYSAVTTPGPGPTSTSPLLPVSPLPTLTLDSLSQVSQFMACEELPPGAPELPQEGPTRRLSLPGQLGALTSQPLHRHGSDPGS
row,SMILES,"hERG current change (%, negative = inhibition) at 10uM"
1,CCN1CCN(c2cc(C)c3cc(NC(=O)c4ccc(C)c(C)c4)ccc3n2)CC1,-43.3%
2,CC1CC(C(F)(F)F)n2ncc(C(=O)O)c2N1 (centres unmarked),11.5%
3,Cc1cccc(N2CCN(S(=O)(=O)c3ccc4c(c3)CC(C)N4C(=O)C3CC3)CC2)c1C (centres unmarked),8.2%
4,CCOc1cc2c(cc1OCC)-n1cccc1C(c1ccc(OC)cc1)NC2.Cl (centres unmarked),-48.1%
5,COC(=O)c1cccc(NC(=O)CCc2cc(OC)c(OC)c(OC)c2)c1,-0.185%
6,O=C(Nc1cc(C(=O)N2CCOCC2)cc(C(=O)N2CCOCC2)c1)c1cc(F)c(F)cc1Cl,18%
7,NC1=NC(=O)/C(=C/c2cc(Br)c(O)c(Br)c2)S1,16.8%
8,CC(C)(C)NC(=O)C(c1ccccc1)N(C(=O)c1csnn1)C1CC1 (centres unmarked),0.809%
9,CCN(CC)C(=O)c1ccc(-c2nnc(Nc3ccc(C(=O)N(C)C)cc3)c3ccccc23)cc1,0.298%
10,O=C(O)CCCC(=O)Nc1ccccc1Br,13.3%
11,CCCCOCCCNC(=O)CC(C)c1ccccc1 (centres unmarked),10.1%
12,Cc1c(C=O)c2ccccc2n1CC(=O)NCc1ccccc1,23.1%
13,CCOC(=O)CSc1nnc(CNC(=O)c2cccs2)n1-c1cccc(C)c1,-11.7%
14,COc1ccc(OCCC(=O)N2CCN(C)CC2)cc1.Cl,17.3%
15,O=C(COc1ccccc1)Nc1nccs1,-13.5%
16,O=C(OCC(=O)N1CCOCC1)c1ccccc1Br,20.8%
17,CCOC(=O)C1CCCN(C(=O)Cc2c(F)cccc2Cl)C1 (centres unmarked),4.12%
18,CCC(=O)C1CCCN(C(=O)c2ccc(OC3CCN(C(=O)c4cccnc4)CC3)cc2)C1 (centres unmarked),13.8%
19,C=CCn1c(CC(C)(C)C)nc2ccccc21,5.31%
20,O=C(COC(=O)c1ccco1)NC(c1ccccc1)c1ccccc1,3.56%
21,Clc1ccc(Cl)c(OCCCCNCc2ccccc2)c1.O=C(O)C(=O)O,-71.5%
22,CCCCn1nc(C(=O)NNC(=O)c2ccncc2)c2ccccc2c1=O,-15%

row,SMILES,"hERG current change (%, negative = inhibition) at 10uM"
1,O=CNCCCc1nc2ccccc2n1Cc1cccc2ccccc12,-43%
2,O=C(NC1(Cc2ccccc2)CCN(Cc2ccc(-c3ccccc3)cc2)C1=O)c1ccccc1 (centres unmarked),11%
3,CCC(C(=O)OC)n1cnc2c(nnn2-c2cccc(OC)c2)c1=O (centres unmarked),2.24%
4,COc1ccc(Cl)cc1NC(=S)NCc1ccccn1,9%
5,CCCc1ccc(OCCNC(=O)CC)cc1,-10.9%
6,CC(C)c1csc(CN2CCN(Cc3ccc(F)c(F)c3)C(CCO)C2)n1 (centres unmarked),-19.3%
7,Cc1[nH]n(-c2ccccc2)c(=O)c1/C=N/NC(=O)c1cccc(F)c1,20.1%
8,COc1ccc(Br)cc1C(=O)N/N=C/c1ccc([N+](=O)[O-])cc1,3%
9,COc1cccc(C2/C(=C(/O)c3ccc4c(c3)CC(C)O4)C(=O)C(=O)N2c2nnc(C)s2)c1 (centres unmarked),17%
10,CCOc1ccc(CN2CCCC(C(=O)c3ccccc3OC)C2)cc1 (centres unmarked),-82%
11,Cn1c(CSCc2ccccc2)nnc1SCC(=O)Nc1nccs1,-16.1%
12,CCC/C=C(\CCC)C(NC(=O)OCC(C)C)c1ccc(C(=O)OC)cc1 (centres unmarked),7.89%
13,O=C(C1=C[C@@H](c2coc3ccccc3c2=O)C[C@@H](OCc2ccc(CO)cc2)O1)N1CCOCC1,-24.7%
14,COc1cccc(/C=N/NC(N)=S)c1OCc1ccccc1Cl,7.81%
15,NC(=O)N/N=C/c1ccccc1OCC(=O)NCc1ccccc1,-3.76%
16,O=C(O)CCn1c(=O)[nH]c2ccccc2c1=O,12.4%
17,COc1ccc(Br)cc1CN(C)C(=O)c1ccccc1OCc1c(C)noc1C,-28.7%
18,O=C(Nc1ccc(OC(F)F)cc1)c1ccccn1,6.62%
19,CCOc1ccccc1CN1CCNC(=O)C1CC(=O)NCc1ccccn1 (centres unmarked),-42.3%
20,CC(=O)Nc1ccc(/C=C/c2nc3ccccc3[nH]c2=O)cc1,13%
21,CCn1c(=O)cc(SCC(=O)N2CCN(c3ccccc3F)CC2)c2ccccc21,-21.7%
22,O=C(Nc1ccccc1O)c1ccc2c(c1)C(=O)N(c1ccccc1)C2=O,9.77%

row,SMILES,"hERG current change (%, negative = inhibition) at 10uM"
1,Cc1ccc(C(=O)OCC(=O)Nc2sccc2C(N)=O)cc1NC(=O)c1ccco1,14.8%
2,NC(=O)c1ccsc1NC(=O)c1ccc(S(=O)(=O)N2CCCC2)cc1,-7.59%
3,CC1CN(C(=O)C(Sc2ccccc2)c2ccccc2)CC(C)O1 (centres unmarked),-15.4%
4,CCOc1ccc(N2C(=O)CCC2=O)cc1,10.8%
5,C=CCn1c(O)c(C(C)=NCCCN2CCOCC2)c(=O)[nH]c1=O,3.33%
6,CSc1ccc(CN2CCN(C(=O)CC(C)C)CC2)cc1,9.42%
7,O=C(CSc1nnnn1-c1ccccc1)c1ccco1,-18.8%
8,CCOC(=O)N1CCC(NC(=O)CSCc2cnn(-c3ccccc3)c2-n2cccc2)CC1,-16.6%
9,COc1cccc(C2c3c(-c4cc(Cl)c(C)cc4O)n[nH]c3C(=O)N2Cc2cccnc2)c1 (centres unmarked),-0.616%
10,COC(=O)c1cn(CC(=O)Nc2ccccc2C)c2ccccc12,22.5%
11,CSc1cccc(NC(=O)C2C3C=CC4(O3)C2C(=O)N(CCN2CCOCC2)C4C(=O)NC2CCCCC2)c1 (centres unmarked),9.21%
12,COc1ccc(-c2c(-c3cc(OC)cc(OC)c3)n(C)c3ccc(-c4ccc(SC)cc4)cc23)cc1,18.7%
13,NC(=O)COc1ccc(/C=N\NC(=O)c2ccc(-c3ccccc3)cc2)cc1,6.9%
14,CCN(CC)C(=O)Cn1c(=O)n(Cc2ccc(F)cc2)c(=O)c2sccc21,12%
15,COc1cc(C(c2sc3nc(C)nn3c2O)N2CC(C)OC(C)C2)cc(OC)c1OC (centres unmarked),7.58%
16,CCn1ncc(Cl)c1C(=O)Nc1ccncc1,-5.7%
17,Cc1noc(C)c1COc1ccc(C(=O)OCC(=O)N2CC3(C)CC2CC(C)(C)C3)cc1 (centres unmarked),-6.44%
18,Cc1ccc(C(C(=O)NC(C)(C)C)N(Cc2ccc3c(c2)OCO3)C(=O)c2ccc(CN3CCOCC3)o2)o1 (centres unmarked),-0.88%
19,CN(CC(=O)Nc1ccc(Cl)c(C(F)(F)F)c1)C(=O)Cc1c[nH]c2ccccc12,2.59%
20,COc1cccc(-n2nnc3c(=O)n(CC(=O)Nc4ccc(C)cc4)cnc32)c1,6.39%
21,COc1ccc(NS(=O)(=O)c2cc(NC(=O)c3cccs3)ccc2N2CCOCC2)cc1,-4.22%
22,Cc1nn(-c2cccc3cccnc23)c(=O)c2ccccc12,17.8%

row,SMILES,"hERG current change (%, negative = inhibition) at 10uM"
1,COc1cc(C(=O)Oc2ccccc2/C=N/NC(=O)c2ccc(C)cc2)cc(OC)c1OC,20.7%
2,NC(=O)CC[C@H](NC(=O)c1ccc(F)cc1)C(=O)OCC(=O)NCc1ccc(F)cc1,19.4%
3,CCC1CCCCN1CCCNC(=O)Cn1cnc2sc(C)c(S(=O)(=O)N3CC(C)CC(C)C3)c2c1=O (centres unmarked),4.72%
4,COc1ccccc1C(=O)NNS(=O)(=O)c1ccc(F)cc1,8.47%
5,CCn1c(SCC(=O)c2cc(C)n(CC3CCCO3)c2C)nc2ccccc21 (centres unmarked),-11.6%
6,Cc1cc(C)n2nc(C(=O)OC(C)C(=O)c3ccccc3)nc2n1 (centres unmarked),17.9%
7,CCCCc1cc(=O)oc2cc(C)cc(OCC(=O)N3C[C@H]4C[C@@H](C3)c3cccc(=O)n3C4)c12,-46.9%
8,CC(C)Sc1nc2c(c(=O)n(C)c(=O)n2C)n1Cc1ccc(Cl)cc1,-2.96%
9,COc1ccc(Cl)cc1Nc1nc(NCCO)nc(N2CCCCC2)n1,-3.45%
10,Nc1nnc(-c2cccc([N+](=O)[O-])c2)s1,-0.408%
11,CCOC(=O)Cc1csc(NS(=O)(=O)c2ccc(F)cc2)n1,7.33%
12,COc1ccc2c(c1)C(SCC(=O)NCCc1ccc(Cl)cc1)CC(C)(C)O2 (centres unmarked),-8.41%
13,CC1=CC(C)(C)NC(=S)N1C(C)c1ccccc1 (centres unmarked),22.7%
14,O=C(c1ccccc1)c1nn(-c2cccc(Cl)c2)ccc1=O,1.55%
15,Cc1ccc(S(=O)(=O)NCC(c2cccnc2)N2CCc3ccccc32)cc1 (centres unmarked),-2.1%
16,COc1cccc(NC(=O)CN(c2ccccc2OC)S(=O)(=O)c2cccs2)c1,2.3%
17,COc1ccc(NC(=O)NNC(=O)COc2ccc([N+](=O)[O-])c(C)c2)cc1OC,10.1%
18,O=c1cc(CN2CCN(S(=O)(=O)/C=C/c3ccccc3)CC2)c2ccc(O)cc2o1,-76.8%
19,COc1cccc(C(=O)Nc2ccccc2C(=O)NCC2CCCO2)c1 (centres unmarked),-14.3%
20,O=C(CCc1nnc2ccc(NCc3ccccc3)nn12)NC1CCCC1,11.1%
